# Source: the supplement of paper PMC11417369
# ± gives the standard deviation of the averaged measurements. The list shows a part of the results.
# System: PfAP2-EXP AP2 domain (GST-tagged)
# Test: gcPBM binding intensity (ln(normalized median fluorescence intensity)); higher = stronger DNA binding
# Method in brief: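 Using an Agilent 4 × 180k array, primer-extended double-stranded 36-bp intergenic genomic probes and negative controls were exposed for 1 h to GST-fused P. falciparum DNA-binding domains expressed in E. coli. Binding was carried out in 1× PBS with 1% milk, 0.2 mg/ml BSA, 0.5% salmon testes DNA and 0.03% Triton X-100, and protein was detected with Alexa488 anti-GST antibody and a 488 nm scan. Binding intensity is the highest Masliner-normalised natural-log median intensity across replicate spots of either probe orientation.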
row,Sequence,gcPBM binding intensity (ln)
1,CATAAGAGGAACTTTTGTACTTATATGTATATAGTA [XGTACX_site5836],8.32 ± 0.49
2,GCCACACTTTTCTGCACACATAAAAAATATATAAAT [CACACA_site578],8.96 ± 0.3
3,ACATGAATTTATATGTGTACTAACTATATTCTTAAA [XGTACX_site5966],8.27 ± 0.25
4,TCTGGCATATAATATTGTACACATATATATATATAT [XGTACX_site8182],10.2 ± 0.33
5,TATATACAATATAGGTGTACATTTTTTTATCTATTT [XGTACX_site8431],8.62 ± 0.31
6,ATGAATAAATAGGTCACACACAAATATTTATAAATA [CACACA_site7186],8.77 ± 0.52
7,TATCTGTATTTATTCACACATATAAAATATAATTAA [CACACA_site5560],8.34 ± 0.37
8,GATATGAATATAGGTTGTACTATATATAAAGTATGT [XGTACX_site1877],8.61 ± 0.3
9,AACGGGGGTAGTTTTATGCACACGTTTATTAATGCT [CACACA_site3173],9.35 ± 0.37
10,AAAGTACAAGTATAATCACACGTGTCTATTATATAC [CACACA_site4507],8.86 ± 0.54
11,TATATGTTAATTTTTTTTTTTTTTTTTTTTTTTATA [CACACA_negctrl_site62],7.92 ± 0.49
12,AATATCTTAGTGGATACACACATATAAATGTGTATT [CACACA_site6367],8.31 ± 0.33
13,TTGAGCATAAAATTTGGAAACCTCAATCGGACAAAA [GTGCAC_negctrl_site84],8.51 ± 0.38
14,CTTTCAATTTTTTTCTGTACCAATAAAAAATATAAA [XGTACX_site2120],8.46 ± 0.3
15,ATATTTATGTAAAAAAGTACATACAATTATATATGT [XGTACX_site3750],8.35 ± 0.28
16,GATTACAAAAAAAATACACACAAAAAAAAAAAGGAA [CACACA_site2096],8.54 ± 0.58
17,ATAATGTTTTATAATACACACATTATATATATAAAT [CACACA_site6101],8.4 ± 0.37
18,ACACATACATACATATGTACATATATACATATATAC [XGTACX_site5559],8.84 ± 0.26
19,TACAAAAAAGAAGATATTCAAACAAAAACAAAAAAA [CACACA_negctrl_site1126],8.57 ± 0.49
20,CAATACTATTATTATAGTACGTATAAAATTATATAT [XGTACX_site4950],8.44 ± 0.21
21,TTTTTATTTTTTATGTAATTTAAATAATTATTCAAA [CACACA_negctrl_site1549],8.15 ± 0.4
22,AGTAAACGATGATGTTGTACAAAAAGGATAATTTAA [XGTACX_site6698],8.96 ± 0.41

row,Sequence,gcPBM binding intensity (ln)
1,GTATTCTTCTCTCCGTGTACATATATATGTATATAT [XGTACX_site803],9.26 ± 0.35
2,TATCATAATAGACACAGTACATATATGTCTTAAATT [XGTACX_site8775],8.48 ± 0.47
3,TATATATATATGCTACGTACATATATATTATATATA [XGTACX_site7894],9.79 ± 0.17
4,GTAACCCACCAAAATGCACACATTAAAAAAAAAAAA [CACACA_site1046],8.73 ± 0.59
5,TGTTTCTAAAAAAAAGGTACACATATATATAATATA [XGTACX_site3217],8.52 ± 0.26
6,AAACCGTGGGAGCACACACACACACGCGCACATATA [CACACA_site6288],8.78 ± 0.52
7,TTTATCAAAATAAATGCACACAAATTGCACATATCT [CACACA_site8281],8.415 ± 0.078
8,AAAAAATTTCAAATGACATAATGTAATTTCCCTTTT [GTGCAC_negctrl_site673],8.1 ± 0.5
9,TATATATTATATATATGTACATATTTATTTTATTTT [XGTACX_site6989],8.47 ± 0.3
10,AATACCGGAAAGCAAACACACATTTGAAAACCATAA [CACACA_site7761],8.88 ± 0.48
11,ATAGTTTATACAAATAGTACGCACAAAAAAAAATAA [XGTACX_site6727],8.74 ± 0.38
12,TATATATAAACAAAATGTACATATTTGAGATACCCT [XGTACX_site2195],8.53 ± 0.23
13,TAATAAATAAATGACACACACACACCCAAAAAAAAA [CACACA_site2623],8.75 ± 0.35
14,AGCTATGTATTCTACACACACATACACCCATATATA [CACACA_site5827],8.88 ± 0.47
15,TTATTAACCTAAATTAGTACATATAATATAAAAAAT [XGTACX_site8661],8.59 ± 0.42
16,TTGAAATGCATGAACACACACAGCTATAAATGCATA [CACACA_site968],8.46 ± 0.47
17,AAAATATTATCTAATTGTACTTATATAACTATATAT [XGTACX_site5699],8.27 ± 0.35
18,AAATTTATGAACCTAGTGCAGAAATTAAAAAGATGA [GTGCAC_site9396],8.84 ± 0.23
19,ATACTAAGGAGAAAAGAAAAGTGAATTTATTCTATA [CACACA_negctrl_site1792],8.27 ± 0.43
20,AAACATTTATCAATGAATCTTTTAATAAGTGTAAAG [XGTACX_negctrl_site80],8.12 ± 0.61
21,TCATTCAGTTTTATCACACACAATCAAACATATATA [CACACA_site2742],8.6 ± 0.47
22,ATATATATAATAAATACACACATTTATATAGATAAA [CACACA_site3254],8.27 ± 0.28

row,Sequence,gcPBM binding intensity (ln)
1,ATTCAATATTTATACACACACACTTTTAATAATTAA [CACACA_site7725],8.7 ± 0.38
2,TCAACATTCATTGGAAGTACTCACTCCCATATAATA [XGTACX_site5211],8.43 ± 0.27
3,AATATAAGGATATATACACACATAAATACATACATA [CACACA_site7859],8.67 ± 0.31
4,TATTTTTTTAGATATACATGCAAAAACAGAAGAAAT [TGCATGCA_site283],9.12 ± 0.35
5,AATATGTCATATATGTGTACATATGCACAGATATTA [XGTACX_site951],8.63 ± 0.22
6,TGAACTTTAAACCCTGAACACACACTAATACACCCA [CACACA_site7970],8.88 ± 0.47
7,ATAAAAAGAAATCCAATACACACCTTCAAAATGGGT [CACACA_site1622],8.55 ± 0.67
8,CATAAATGTCTCACATGTACATATGCATTTTTAAAA [XGTACX_site3194],8.69 ± 0.28
9,TATATATAATATTGCACACAAAATTAAAAGTAAATA [CACACA_site19],8.4 ± 0.28
10,TGCATAAATTTATGCACACATAAAAAAAAAAAAAAA [CACACA_site2923],8.73
11,CAACTCTTATTTAATTATATGAATTAATTTATATGA [CACACA_negctrl_site200],8.09 ± 0.37
12,TTAAATACTAAAAAGTGTACACATACATAAAAAATT [XGTACX_site6261],8.91 ± 0.17
13,ATTATGTTAATAATATGTACATATATCTACATATAT [XGTACX_site7978],8.37 ± 0.33
14,ATTATTTTGTTTATTACATGCAGGTGTATATTACAG [TGCATGCA_site723],9.12 ± 0.4
15,GAGTATATTTATATTGCACACAATTTTTTTATTTTT [CACACA_site2644],8.56 ± 0.18
16,TTTTCGATATGCTTTTTTTTTCTACTGTCTTTTTAA [TGCATGCA_negctrl_site54],8.69 ± 0.45
17,ATATCAAATTCTGAAACACACAAAATTACACCTCTA [CACACA_site169],8.43 ± 0.62
18,CACATACATAAATACACACACAAAATAATAAAATAA [CACACA_site5304],8.7 ± 0.36
19,TTACTTAATAGACACACACACAAAAAAAAAAAAAAA [CACACA_site6572],8.21 ± 0.49
20,CAAAAATATTATTATAGTACATAAATAATATATTTT [XGTACX_site6902],8.15 ± 0.42
21,TAAAAATAGGAGTGTGTGCACATAAATTATATACTA [GTGCAC_site9405],8.9 ± 0.18
22,AAAAAAAAAAAAAAAAAAAAACACCCAAAAAAATAT [XGTACX_negctrl_site210],9.07 ± 0.085

row,Sequence,gcPBM binding intensity (ln)
1,GAAAGACAAATTGTGACACACACAAAAAAAAAAAAA [CACACA_site9241],8.41 ± 0.57
2,TATATATATATTTTTTGTACATATTATATAATATAC [XGTACX_site5187],9.46 ± 0.35
3,TTTTCATTTTTCTTTACACACATATATATATATATA [CACACA_site2236],10.2 ± 0.31
4,ACCTTATAAAAAAAAAGTACATATATAAATAATAAA [XGTACX_site4338],9.71 ± 0.37
5,ATATTTTTTACTATTACACACAAGGGATTATTATTT [CACACA_site3915],8.62 ± 0.44
6,TCAAATAATTTGTTGACACACACACCCACATACATA [CACACA_site8717],8.76 ± 0.51
7,TATACATAATATATATGTACATATATTCTTTATTTT [XGTACX_site4565],8.51 ± 0.33
8,AAACAATAAAAGATTACACACATATATAGCATATAT [CACACA_site1698],8.61 ± 0.35
9,TATTTATGCACGCGTGCACACACATATGAAAAAAGG [CACACA_site9090],9.23 ± 0.11
10,AATTGCTAATGGTACGAACACACATATAAAGATGCA [CACACA_site8634],8.97 ± 0.42
11,AAGAATGTTAACGTTGCACACAAAAAAAAAGTATAC [CACACA_site8763],8.88 ± 0.46
12,ATATAAGTTATTTTATACAAAAAAAAAAAAAAAAAT [CACACA_negctrl_site1190],8.34 ± 0.46
13,AAAAAAAAAAAAAATACACACACATATATATATATA [CACACA_site8698],10.1 ± 0.26
14,CTTTCATATGTTTTAACACACACGCATATATTATAG [CACACA_site7033],8.9 ± 0.39
15,GTAAACAATTATGAACGTACATAAAATAAATGAACA [XGTACX_site7159],8.89 ± 0.43
16,TGTCTTTTTAAGTTTTGTACATAAATATATTTCAAA [XGTACX_site427],8.81 ± 0.29
17,TTTTTATGGACTATGGTGCATTATATATAAATGAAA [GTGCAC_site9557],9.2 ± 0.48
18,AGTATACACAGACACACACACACATATATATATATA [CACACA_site8510],10.2 ± 0.23
19,TAATATTATATAAATTGTACTATTTTTTCCTTATTC [XGTACX_site5314],8.41 ± 0.54
20,ATATAAAACAACGGGTGTACAAAAAAATAAATAATA [XGTACX_site4094],8.535 ± 0.064
21,AAAGAAATGAAATATACACACATACCTATATACATA [CACACA_site7817],8.48 ± 0.29
22,TATAGATACCTATACACACACACACGGACATATATA [CACACA_site7585],8.84 ± 0.48
